Measured values taken from paper PMC12040169 (PLOS Biology, 2025).
The other results are listed elsewhere or left out.

These compounds were tested on T1, C. trachomatis L2/434/Bu expressing GFP (CTL2-GFP). Conditions: total inclusion area; 28.5 h, 10 µM; inhibitor.
T1 construct: L2/434/Bu GFP intracellular growth in HeLa cells
Design: species or system HeLa; C. trachomatis total inclusion area by high-content imaging, normalised to DMSO
In short: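 High-content images of fixed, Hoechst-stained infected cultures supply inclusion area and count (growth) plus nuclei number (viability), complementing bulk GFP/resorufin fluorescence. MIC determination is unchanged from the primary assay.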
`CSc1nc(NC(=O)c2cc(-c3ccccc3)oc2C)cc(N2CCNCC2)n1` [CBK050364T] was tested, and the “% of control remaining” value was 82.4644. With `CC(CC(=O)NC(c1ccc(F)cc1)c1nccn1C)n1cccn1` (stereo not drawn) [CBK281454] the “% of control remaining” value was 104.473. In the case of `NS(=O)(=O)c1ccc(NS(=O)(=O)c2ccc(NC(=O)Nc3ccc(Cl)cc3)cc2)cc1` [CBK264902], the “% of control remaining” value is reported as 92.7079. For `CCCOc1cccn2c(N(CC(=O)N(C)C)C(C)=O)c(CC)nc12` [CBK147850], the “% of control remaining” value was 103.506. `COc1cccc(CN(Cc2ccco2)Cc2cnc(C)n2C)c1` [CBK282494] was tested, and the “% of control remaining” value was 110.802. For `CSc1ccccc1C(=O)Nc1nccs1` [CBK288225], the “% of control remaining” value was 94.4931. With `Cc1ccc(C)c(C(=O)C2=C(O)C(=O)N(CCN(C)C)C2c2ccc(O)cc2)c1` (stereo not drawn) [CBK265740] the “% of control remaining” value was 125.426. With `Cc1ccnc(NCC2CCN(Cc3cc(=O)n4ccccc4n3)C2)c1` (stereo not drawn) [CBK306003] the “% of control remaining” value was 10.4327. With `COc1ccc(/C(N)=N/OC(=O)Cc2ccc(Cl)cc2)cc1OC` [CBK263272] the “% of control remaining” value was 109.66. With `Cc1ccnc(NS(=O)(=O)c2ccc(NC(=O)c3cc(-c4ccc(Br)cc4)nc4ccccc34)cc2)n1` [CBK263650] the “% of control remaining” value was 111.871. `O=C(N[C@H]1CCCC[C@H]1N1CCCC1)N[C@H]1CCCC[C@H]1N1CCCC1` [CBK003419] was tested, and the “% of control remaining” value was 117.816. `COc1ccc(-n2ncc(-c3cccc(C(F)(F)F)c3)n2)cn1` [CBK112678] was tested, and the “% of control remaining” value was 98.6666. For `CN1CCC[C@@H]2[C@H]1[C@@H](c1ccc(F)cc1)CN2C(=O)c1ccccn1` [CBK283081], the “% of control remaining” value was 98.3265. With `CC(C)c1noc([C@@H]2Cc3[nH]cnc3CN2C(=O)Nc2ccccc2)n1` [CBK288969] the “% of control remaining” value was 97.446. With `O=S(=O)(c1ccccc1)N(Cc1cc2ccccc2nc1O)CC1CCCO1` (stereo not drawn) [CBK269424] the “% of control remaining” value was 70.601. With `C=CCNC(=O)N[C@H]1CCN2C(=O)c3ccccc3NC(=O)[C@@H]2C1` [CBK289568] the “% of control remaining” value was 88.2988. With `COC(=O)c1c(C)oc2cc(Br)c(OCC(=O)c3ccc(Cl)cc3)cc12` [CBK264946] the “% of control remaining” value was 101.76. For `CCCC1CN(C)c2ccccc2C1=O` (stereo not drawn) [CBK023527], the “% of control remaining” value was 72.5838. For `OC[C@]1(c2ccccc2)CC[C@H](N2CCCC2)CC1` [CBK016010], the “% of control remaining” value was 111.729. In the case of `COc1ccc(CCC(=O)NCC(c2cccs2)N2CCOCC2)cc1` (stereo not drawn) [CBK304674], the “% of control remaining” value is reported as 56.0479. With `COC1CCN(C2CCc3c(Cl)cc(Cl)cc32)CC1` (stereo not drawn) [CBK304883] the “% of control remaining” value was 48.2989. With `CC1CC(C)CN(C(=O)Cn2c(=O)n(C)c3ncccc32)C1` (stereo not drawn) [CBK283794] the “% of control remaining” value was 94.1792. `COc1ccc2nc(-c3cccc(NC(=O)c4ccc(F)cc4)c3)cn2n1` [CBK287826] was tested, and the “% of control remaining” value was 95.588. In the case of `CN(C)CC1COc2ccccc2CN1C(=O)Cc1ccccc1F` (stereo not drawn) [CBK285080], the “% of control remaining” value is reported as 108.605. With `O=C(c1ccc(-c2nccnc2NCC2CC2)cc1)N1CCOCC1` [CBK036814] the “% of control remaining” value was 101.535. For `CCCc1[nH]nc(O)c1Cc1cc(F)ccc1Br` [CBK075031], the “% of control remaining” value was 85.2336. `O=C1C=C(N2CCC(CCC3CCN(C4=CC(=O)CCC4)CC3)CC2)CCC1` [CBK007126] was tested, and the “% of control remaining” value was 99.5083. For `O=[N+]([O-])c1ccc(CN2CCC(Oc3cncc(OCc4ccc(Cl)c(Cl)c4)n3)C2)cc1` (stereo not drawn) [CBK084426], the “% of control remaining” value was 84.6766. For `O=C(O)CSc1nc2ccccc2n1Cc1ccccc1` [CBK262411], the “% of control remaining” value was 85.4407. `N#CCCCN1CCC(Oc2nccnc2OCc2cccnc2)CC1` [CBK083171] was tested, and the “% of control remaining” value was 87.1613. For `CN1CCC(Cc2nc(-c3ccc(Cl)s3)n(CCO)n2)CC1` [CBK307025], the “% of control remaining” value was 69.7028. For `COc1ccc(N2C(=O)c3ccc(C(=O)OCC(=O)c4ccccc4Cl)cc3C2=O)c([N+](=O)[O-])c1` [CBK265514], the “% of control remaining” value was 94.9921. In the case of `O=C1COc2ccccc2C/C=C/CC2(CCN(C(=O)c3n[nH]c4ccccc34)CC2)CN1` [CBK292021], the “% of control remaining” value is reported as 97.7744. For `COc1ccc(CN2CCOC(C(=O)O)C2)cc1Cn1cncn1` (stereo not drawn) [CBK306919], the “% of control remaining” value was 56.234. In the case of `Cc1cc([N+](=O)[O-])ccc1-c1ccc(C(=O)Nc2ccc(O)c(-c3nc4ccccc4s3)c2)o1` [CBK263421], the “% of control remaining” value is reported as 108.597. With `Cc1cc(OCC(=O)Nc2ccccc2CO)cc(C)c1Br` [CBK265094] the “% of control remaining” value was 106.42. `CNC(=S)N1CCN(c2nccnc2NS(=O)(=O)Cc2ccccc2)CC1` [CBK049044] was tested, and the “% of control remaining” value was 85.0731. For `c1ccc(Cc2csc(C3CN4CCCC4CO3)n2)cc1` (stereo not drawn) [CBK304202], the “% of control remaining” value was 77.654. `Cc1nn(CC(=O)N(C)C2CCCCC2)c(=O)c2cc3occc3n12` [CBK283653] was tested, and the “% of control remaining” value was 112.755.
